Test results published in patent publication US20190359693A1.

What was measured:
Assay in all cases: cell-based or functional assay
[1] = target: hemagglutinin (HA) of influenza A/Anhui/1/13 (H7N9) (influenza A virus)
[2] = target: hemagglutinin (HA) of influenza A/California/07/09 (H1N1) (influenza A virus)
[3] = target: hemagglutinin (HA) of influenza A/New Caledonia/20/99 (H1N1) (influenza A virus)
[4] = target: hemagglutinin (HA) of influenza A/Shanghai/2/13 (H7N9) (influenza A virus)
[5] = target: hemagglutinin (HA) of influenza A/Vietnam/1194/04 (H5N1) (influenza A virus)
[6] = target: hemagglutinin (HA) of influenza A/WF/HK/MPA892/06 (H4) (influenza A virus)
[7] = target: hemagglutinin (HA) of influenza A/Wisconsin/67/05 (H3N2) (influenza A virus)
[8] = target: hemagglutinin (HA) of influenza B/Florida/04/06 (Yamagata) (influenza B virus)
[9] = target: hemagglutinin (HA) of influenza B/Harbin/7/94 (Yamagata) (influenza B virus)
[10] = target: hemagglutinin (HA) of influenza B/Malaysia/2506/04 (Victoria) (influenza B virus)
[11] = target: hemagglutinin (HA) of influenza A/Eurasian Wigeon/MPH571/08 (H8N4) (influenza A virus)
[12] = target: hemagglutinin (HA) of influenza A/Northern Pintail/MPC2085/07 (H11N9) (influenza A virus)
[13] = target: hemagglutinin (HA) of influenza A/Brisbane/10/07 (H3N2) (influenza A virus)
[14] = target: hemagglutinin (HA) of influenza A/NIBRG/60 (A/mallard/Netherlands/12/00) (H7N3) (influenza A virus)

| Binder | Average neutralization titers [1] [nM] | Average neutralization titers [2] [nM] | Average neutralization titers [3] [nM] | Average neutralization titers [4] [nM] | Average neutralization titers [5] [nM] | Average neutralization titers [6] [nM] | Average neutralization titers [7] [nM] | Average neutralization titers [8] [nM] | Average neutralization titers [9] [nM] | Average neutralization titers [10] [nM] | Average neutralization titers [11] [nM] | Average neutralization titers [12] [nM] | Average neutralization titers [13] [nM] | Average neutralization titers [14] [nM] |
| --- | --- | --- | --- | --- | --- | --- | --- | --- | --- | --- | --- | --- | --- | --- |
| MD2641 (Fc fusion) EVQLVESGGGLVQPGGSLRLSCAATGFTLENKAIGWFRQTPGSEREGVLCISKSGSWTYYTDSMRGRFTISRDNAENTVYLQMDSLKPEDTAVYYCATTTAGGGLCWDGTTFSRLASSWGQGTQVTVSSGGGGSGGGGSEVQLVESGGGLVQPGGSLKLSCAASGFTFSTSWMYWLRQAPGKGLEWVSVINTDGGTYYADSVKDRFTISRDNAKDTLYLQMSSLKSEDTAVYYCAKDWGGPEPTRGQGTQVTVSS[gap - human IgG1 Fc]GGGGSGGGGSEVQLVESGGGLVQPGGSLRLSCAVSISIFDIYAMDWYRQAPGKQRDLVATSFRDGSTNYADSVKGRFTISRDNAKNTLYLQMNSLKPEDTAVYLCHVSLYRDPLGVAGGMGVYWGKGALVTVSSGGGGSGGGGSEVQLVESGGGLVQAGGSLKLSCAASGRTYAMGWFRQAPGKEREFVAHINALGTRTYYSDSVKGRFTISRDNAKNTEYLEMNNLKPEDTAVYYCTAQGQWRAAPVAVAAEYEFWGQGTQVTVSS | 26.7 | 2.1 | 9.2 | 17.4 | 13 | 2.4 | 15.5 | 1.7 | 1.2 | 5.5 |  |  |  |  |
| MD2644 (Fc fusion) chain 1: EVQLVESGGGLVQPGGSLRLSCAVSISIFDIYAMDWYRQAPGKQRDLVATSFRDGSTNYADSVKGRFTISRDNAKNTLYLQMNSLKPEDTAVYLCHVSLYRDPLGVAGGMGVYWGKGALVTVSSGGGGSGGGGSEVQLVESGGGLVQPGGSLRLSCAVSISIFDIYAMDWYRQAPGKQRDLVATSFRDGSTNYADSVKGRFTISRDNAKNTLYLQMNSLKPEDTAVYLCHVSLYRDPLGVAGGMGVYWGKGALVTVSSGGGGSGGGGSEVQLVESGGGLVQAGGSLKLSCAASGRTYAMGWFRQAPGKEREFVAHINALGTRTYYSDSVKGRFTISRDNAKNTEYLEMNNLKPEDTAVYYCTAQGQWRAAPVAVAAEYEFWGQGTQVTVSS[gap - human IgG1 Fc with K409R (EU numbers)] chain 2: EVQLVESGGGLVQPGGSLKLSCAASGFTFSTSWMYWLRQAPGKGLEWVSVINTDGGTYYADSVKDRFTISRDNAKDTLYLQMSSLKSEDTAVYYCAKDWGGPEPTRGQGTQVTVSSGGGGSGGGGSEVQLVESGGGLVQPGGSLRLSCAATGFTLENKAIGWFRQTPGSEREGVLCISKSGSWTYYTDSMRGRFTISRDNAENTVYLQMDSLKPEDTAVYYCATTTAGGGLCWDGTTFSRLASSWGQGTQVTVSS[gap - human IgG1 Fc with changes] | 144 | 2.3 | 7.4 | 60.6 | 14.8 | 6.6 | 20.9 | 2.8 | 4.4 | 7.4 | 9 | 13.1 |  |  |
| MD2646 (Fc fusion) chain 1: EVQLVESGGGLVQAGGSLKLSCAASGRTYAMGWFRQAPGKEREFVAHINALGTRTYYSDSVKGRFTISRDNAKNTEYLEMNNLKPEDTAVYYCTAQGQWRAAPVAVAAEYEFWGQGTQVTVSSGGGGSGGGGSEVQLVESGGGLVQPGGSLRLSCAVSISIFDIYAMDWYRQAPGKQRDLVATSFRDGSTNYADSVKGRFTISRDNAKNTLYLQMNSLKPEDTAVYLCHVSLYRDPLGVAGGMGVYWGKGALVTVSSGGGGSGGGGSEVQLVESGGGLVQPGGSLRLSCAVSISIFDIYAMDWYRQAPGKQRDLVATSFRDGSTNYADSVKGRFTISRDNAKNTLYLQMNSLKPEDTAVYLCHVSLYRDPLGVAGGMGVYWGKGALVTVSS[gap - human IgG1 Fc with K409R (EU numbers)] chain 2: EVQLVESGGGLVQPGGSLKLSCAASGFTFSTSWMYWLRQAPGKGLEWVSVINTDGGTYYADSVKDRFTISRDNAKDTLYLQMSSLKSEDTAVYYCAKDWGGPEPTRGQGTQVTVSSGGGGSGGGGSEVQLVESGGGLVQPGGSLRLSCAATGFTLENKAIGWFRQTPGSEREGVLCISKSGSWTYYTDSMRGRFTISRDNAENTVYLQMDSLKPEDTAVYYCATTTAGGGLCWDGTTFSRLASSWGQGTQVTVSS[gap - human IgG1 Fc with changes] | 226 | 1.6 | 14.8 | 61.3 | 14.8 | 3.3 | 29.6 | 3.3 | 3.7 | 7.4 |  |  |  |  |
| MD2631 (Fc fusion) EVQLVESGGGLVQPGGSLRLSCAVSISIFDIYAMDWYRQAPGKQRDLVATSFRDGSTNYADSVKGRFTISRDNAKNTLYLQMNSLKPEDTAVYLCHVSLYRDPLGVAGGMGVYWGKGALVTVSSGGGGSGGGGSEVQLVESGGGLVQPGGSLRLSCAVSISIFDIYAMDWYRQAPGKQRDLVATSFRDGSTNYADSVKGRFTISRDNAKNTLYLQMNSLKPEDTAVYLCHVSLYRDPLGVAGGMGVYWGKGALVTVSSGGGGSGGGGSEVQLVESGGGLVQAGGSLKLSCAASGRTYAMGWFRQAPGKEREFVAHINALGTRTYYSDSVKGRFTISRDNAKNTEYLEMNNLKPEDTAVYYCTAQGQWRAAPVAVAAEYEFWGQGTQVTVSS[gap - human IgG1 Fc]GGGGSGGGGSEVQLVESGGGLVQPGGSLKLSCAASGFTFSTSWMYWLRQAPGKGLEWVSVINTDGGTYYADSVKDRFTISRDNAKDTLYLQMSSLKSEDTAVYYCAKDWGGPEPTRGQGTQVTVSSGGGGSGGGGSEVQLVESGGGLVQPGGSLRLSCAATGFTLENKAIGWFRQTPGSEREGVLCISKSGSWTYYTDSMRGRFTISRDNAENTVYLQMDSLKPEDTAVYYCATTTAGGGLCWDGTTFSRLASSWGQGTQVTVSS | 54.2 | 1.5 | 6.6 | 35.3 | 9.3 | 7 | 11.1 | 1.8 | 2.3 | 6.6 | 6 | 13.9 |  |  |
| MD2633 (Fc fusion) EVQLVESGGGLVQAGGSLKLSCAASGRTYAMGWFRQAPGKEREFVAHINALGTRTYYSDSVKGRFTISRDNAKNTEYLEMNNLKPEDTAVYYCTAQGQWRAAPVAVAAEYEFWGQGTQVTVSSGGGGSGGGGSEVQLVESGGGLVQPGGSLRLSCAVSISIFDIYAMDWYRQAPGKQRDLVATSFRDGSTNYADSVKGRFTISRDNAKNTLYLQMNSLKPEDTAVYLCHVSLYRDPLGVAGGMGVYWGKGALVTVSSGGGGSGGGGSEVQLVESGGGLVQPGGSLRLSCAVSISIFDIYAMDWYRQAPGKQRDLVATSFRDGSTNYADSVKGRFTISRDNAKNTLYLQMNSLKPEDTAVYLCHVSLYRDPLGVAGGMGVYWGKGALVTVSS[gap - human IgG1 Fc]GGGGSGGGGSEVQLVESGGGLVQPGGSLKLSCAASGFTFSTSWMYWLRQAPGKGLEWVSVINTDGGTYYADSVKDRFTISRDNAKDTLYLQMSSLKSEDTAVYYCAKDWGGPEPTRGQGTQVTVSSGGGGSGGGGSEVQLVESGGGLVQPGGSLRLSCAATGFTLENKAIGWFRQTPGSEREGVLCISKSGSWTYYTDSMRGRFTISRDNAENTVYLQMDSLKPEDTAVYYCATTTAGGGLCWDGTTFSRLASSWGQGTQVTVSS | 128 | 1.2 | 3.9 | 36.1 | 6.6 | 2.5 | 15.7 | 2.1 | 1 | 4.7 |  |  |  |  |
| MD2622 (Fc fusion) chain 1: EVQLVESGGGLVQPGGSLRLSCAVSISIFDIYAMDWYRQAPGKQRDLVATSFRDGSTNYADSVKGRFTISRDNAKNTLYLQMNSLKPEDTAVYLCHVSLYRDPLGVAGGMGVYWGKGALVTVSSGGGGSGGGGSEVQLVESGGGLVQAGGSLKLSCAASGRTYAMGWFRQAPGKEREFVAHINALGTRTYYSDSVKGRFTISRDNAKNTEYLEMNNLKPEDTAVYYCTAQGQWRAAPVAVAAEYEFWGQGTQVTVSSAAA[gap - human IgG1 Fc with K409R (EU numbers)] chain 2: EVQLVESGGGLVQPGGSLRLSCAATGFTLENKAIGWFRQTPGSEREGVLCISKSGSWTYYTDSMRGRFTISRDNAENTVYLQMDSLKPEDTAVYYCATTTAGGGLCWDGTTFSRLASSWGQGTQVTVSSAAA[gap - human IgG1 Fc with changes] |  |  |  |  |  |  | 28.3 |  |  |  |  |  | 28.3 | 28.3 |
